{
  "source": "PubChem BioAssay AID686970",
  "about": "(National Center for Advancing Translational Sciences (NCATS), 2013)",
  "note": "About 6,000 (1.7%) of roughly 360,000 compounds were called active. This list was built around the results that the source calls inconclusive (neither active nor inactive); the mix of calls is not that of the screen. Calls come from the whole dose curve; as a rule, active = well fitted cell-killing curve with a large enough effect; inconclusive = small, poorly fitted or top-dose-only effect, or effect the other way; inactive = flat fitted curve, though single readings scatter. Potencies of inconclusive entries are left out as doubtful fits. Potency is the fitted concentration of half-maximal effect; tags give direction and shape of the fitted curve.",
  "data": [
    {"experiment": "qHTS for induction of synthetic lethality in tumor cells producing 2HG: qHTS for the HT-1080-NT fibrosarcoma cell line;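 note: NT is the 2HG producing partner of a matched IDH1 knockdown line; nearly all actives have a fitted effect of over 55% in size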;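 for activity, negative = less viability: 0% = DMSO-treated cells and -100% = media-only wells without cells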", "conditions": "HT-1080-NT fibrosarcoma viability, CellTiter-Glo ATP luminescence, 48 h; activity, negative = less viability: at 46.1 µM (top of the series) unless noted", "how_it_was_run": "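Compounds were tested in concentration-response format on HT-1080-NT cells for 48 hours at 37 degrees C. Cell viability came from CellTiter-Glo luminescence; curves were classified by r2, response magnitude and activity.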", "values": [
      {"smiles": "COc1cc2c3nnc(-c4ccc(F)cc4)c-3cn(Cc3ccccc3F)c2cc1OC", "Potency": "inconclusive [cytotoxic, single point]"},
      {"smiles": "CC(C)(C)NC(=O)C(c1ccncc1)N(C(=O)C1CSC(=O)C1)c1ccccc1", "note": "(stereo unspecified)", "Potency": "inactive"},
      {"smiles": "Cc1[nH]n(-c2ccccc2)c(=O)c1N=Nc1ccccc1O", "Potency": "active: 14.6 µM"},
      {"smiles": "COc1cc(S(=O)(=O)N2CCN(c3ccccc3F)CC2)c(OC)cc1Cl", "Potency": "inactive"},
      {"smiles": "O=C(NCC(=O)N(Cc1ccc(F)cc1)C(C(=O)NCC1CCCO1)c1ccccc1)c1ccco1", "note": "(stereo unspecified)", "Potency": "inactive"},
      {"smiles": "CCN1CCN(S(=O)(=O)c2ccc(OC)c(NC(=O)c3ccccc3)c2)CC1", "Potency": "inactive"},
      {"smiles": "COc1ccc(C#Cc2cnc3c(c2)C(=O)N([C@H](C)CO)C[C@@H](C)[C@H](CN(C)C(=O)CN(C)C)O3)cc1", "Potency": "inactive"},
      {"smiles": "Cc1cccc(CN2CCN(C3CN(Cc4cn(Cc5ccccc5)nn4)S(=O)(=O)C3)CC2)c1", "note": "(stereo unspecified)", "Potency": "inconclusive [rising, single point]"},
      {"smiles": "CC1CCN(CC(O)COC2CC(C)CCC2C(C)C)CC1", "note": "(stereo unspecified)", "Potency": "inconclusive [cytotoxic, single point]"},
      {"smiles": "Cc1ccc2[nH]c3c(c2c1)CN(C(=O)CN1CCCc2ccccc21)CC3", "Potency": "inconclusive [cytotoxic, partial curve]"},
      {"smiles": "O=C1NC[C@@H](CCCCN2C[C@H](Cc3ccccc3)N(CCC3CCCCC3)C(=O)C2=O)N(Cc2ccccc2)C1=O", "Potency": "inconclusive [cytotoxic, single point]"},
      {"smiles": "COC(=O)CSc1nc(C)c(C(=O)Nc2ccccc2C)c(-c2ccc(Cl)cc2)c1C#N", "Potency": "inactive"},
      {"smiles": "CCCOc1ccc(C(=O)CCN2CCN(C(=O)OCC)CC2)cc1", "Potency": "inconclusive [cytotoxic, single point]"},
      {"smiles": "CC12CCC(C/C1=N\\N=C1\\NC(=O)/C(=C\\c3ccc(Cl)cc3)S1)C2(C)C", "note": "(stereo unspecified)", "Potency": "active: 16.4 µM"},
      {"smiles": "CCn1c(=O)cc(SCC(=O)NCc2ccco2)c2ccccc21", "Potency": "active: 7.94 µM"},
      {"smiles": "O=C(Cn1cc[n+](Cc2ccccc2)c1)c1ccc([N+](=O)[O-])cc1", "Potency": "inconclusive [cytotoxic, partial curve, poor fit]"},
      {"smiles": "Cc1ccc(S(=O)(=O)N/N=C\\c2ccccc2OCc2ccccc2)cc1", "Potency": "inconclusive [cytotoxic, single point]"},
      {"smiles": "Cc1cc(C)cc(OCC(=O)O/N=C(\\N)c2cccnc2)c1", "activity, negative = less viability": "inconclusive: 8.41%"},
      {"smiles": "O=c1c2ccccc2ncn1-c1ccc([N+](=O)[O-])cc1[N+](=O)[O-]", "Potency": "inactive"},
      {"smiles": "CC(=O)c1ccccc1NC(=O)CSCc1nc2sc(C)c(C)c2c(=O)[nH]1", "Potency": "inactive"},
      {"smiles": "COc1cc(OC)c(OC)cc1C=Cc1ccc2ccccc2n1", "Potency": "inconclusive [cytotoxic, single point]"},
      {"smiles": "O=C(NC(=S)Nc1ccc(Oc2ccccc2)cc1)c1ccc(Cl)cc1", "Potency": "inconclusive [cytotoxic, single point]"},
      {"smiles": "COc1cccc(/C=N/Nc2ncccc2[N+](=O)[O-])c1OC", "Potency": "inconclusive [cytotoxic, single point]"},
      {"smiles": "Cc1ccccc1C(=O)N1CCC(C(=O)O)CC1", "Potency": "inactive"},
      {"smiles": "COc1cc2[nH]c3c(N4CCN(c5ccc(Cl)cc5)CC4)ncnc3c2cc1OC", "Potency": "inconclusive [cytotoxic, single point]"},
      {"smiles": "CCOC(=O)N1CCN(C(=O)c2cc3ccc(OC)cc3[nH]2)CC1", "Potency": "inconclusive [rising, partial curve]"},
      {"smiles": "O=C1C(Cl)=C(Nc2cccc(O)c2)C(=O)N1Cc1ccccc1", "Potency": "inconclusive [cytotoxic, partial curve]"},
      {"smiles": "CC(=O)c1cccc(NC(=O)C2Cc3c(-c4ccc(Cl)cc4)ccnc3O2)c1", "note": "(stereo unspecified)", "Potency": "inconclusive [cytotoxic, single point]"},
      {"smiles": "Clc1ccc(Cn2ncc3c(NCc4ccco4)ncnc32)c(Cl)c1", "Potency": "inconclusive [cytotoxic, single point]"},
      {"smiles": "C[C@H](CO)N1C[C@H](C)[C@@H](CN(C)S(C)(=O)=O)Oc2ccc(NC(=O)c3ccncc3)cc2C1=O", "Potency": "inactive"},
      {"smiles": "C(=C\\N1CCCCCC1)/c1nnnn1-c1ccc(-c2ccccc2)cc1", "Potency": "inconclusive [cytotoxic, single point]"},
      {"smiles": "COC(=O)c1ccc(NC(=S)NC(=O)C2CCC2)cc1", "Potency": "inconclusive [rising, partial curve]"},
      {"smiles": "O=C(Nc1ccc(F)c(F)c1)c1ccc(-n2cncn2)c([N+](=O)[O-])c1", "Potency": "inactive"},
      {"smiles": "COc1cc(C(=O)N(CCN(C)C)CC2CCCN(Cc3ccccc3F)C2)ccc1C", "note": "(stereo unspecified)", "activity, negative = less viability": "inconclusive: -33.6% [cytotoxic]"},
      {"smiles": "O=C(CCc1ccccc1)NC1(Cc2ccccc2)CCN(CCCc2ccccc2)C1=O", "note": "(stereo unspecified)", "Potency": "inconclusive [cytotoxic, single point]"},
      {"smiles": "O=C(Cc1ccccc1F)Nc1nc(-c2ccc(F)c(F)c2)cs1", "Potency": "inconclusive [cytotoxic, single point]"},
      {"smiles": "CCOc1ccc2c(c1)C(c1ccc(C)cc1)=NNC(c1ccc(C)cc1)=N2", "Potency": "inconclusive [cytotoxic, single point]"},
      {"smiles": "Cc1ccc2ccccc2c1C(O)c1ncc(-c2ccc(C(F)(F)F)cc2)[nH]1", "note": "(stereo unspecified)", "Potency": "inconclusive [cytotoxic, single point]"},
      {"smiles": "COc1ccc(-c2ccc(C(C)=O)cc2)cc1[C@H]1[C@@H]2C=CCC[C@@]2(C)C(=O)N1Cc1ccccc1", "Potency": "inconclusive [cytotoxic, single point]"},
      {"smiles": "COc1ccc(S(=O)(=O)N2CCN(C/C=C/c3ccccc3)CC2)cc1F", "Potency": "inactive"},
      {"smiles": "COc1cccc(C=NN(C)c2c([N+](=O)[O-])cc(C(F)(F)F)cc2[N+](=O)[O-])c1O", "Potency": "inconclusive [cytotoxic, single point]"},
      {"smiles": "OCC[C@H]1C[C@H](O)[C@@H](O)[C@]2(Cc3ccccc3O2)O1", "Potency": "inconclusive [rising, single point]"},
      {"smiles": "CC(=O)c1c(C)[nH]c(C(=O)OCc2nnc(-c3ccc([N+](=O)[O-])cc3)o2)c1C", "Potency": "active: 23.1 µM"},
      {"smiles": "COc1ccc(C(=O)C2CCN(CC(=O)Nc3ccc(OC)cc3OC)CC2)cc1", "Potency": "inconclusive [cytotoxic, single point]"},
      {"smiles": "O=C(NC(=S)N1CCN(c2ccc([N+](=O)[O-])cc2)CC1)c1ccccc1F", "Potency": "inactive"},
      {"smiles": "O=C1Nc2ccccc2S/C1=C/Nc1cccc(Cl)c1", "Potency": "inconclusive [cytotoxic, single point]"},
      {"smiles": "COCc1nnc(NC(=O)C2CC(=O)N(c3ccc(C)c(Cl)c3)C2)s1", "note": "(stereo unspecified)", "Potency": "inactive"},
      {"smiles": "CC1(Cc2ccc(C(F)(F)F)o2)C(=O)Nc2cc(-c3ccc(F)cc3F)ccc21", "note": "(stereo unspecified)", "Potency": "inconclusive [cytotoxic, single point]"},
      {"smiles": "C/C(=N\\O)c1ccc2c3ccccc3n(C)c2c1", "Potency": "inactive"},
      {"smiles": "COc1ccc(CNC(=O)CNC(=O)[C@@H]2Cc3ccccc3CN2)cc1", "Potency": "inconclusive [rising, single point]"},
      {"smiles": "Cc1cc(Cl)ccc1C(O)c1ncc(-c2ccccc2Cl)[nH]1", "note": "(stereo unspecified)", "Potency": "inconclusive [cytotoxic, single point]"},
      {"smiles": "COc1ccc(NC(=O)CSc2nc(C3CC3)nc3ccccc23)cc1", "Potency": "inconclusive [cytotoxic, partial curve]"},
      {"smiles": "COC(=O)c1c(NC(=O)Cc2cccs2)sc(C(=O)NC2CCCCC2)c1C", "Potency": "inactive"},
      {"smiles": "CCOC(=O)Cc1csc(NC(=O)c2sc3nc4cc(C)ccc4cc3c2N)n1", "Potency": "inconclusive [cytotoxic, partial curve]"},
      {"smiles": "CCOC(=O)c1ccc(NC(=O)[C@@H](NC(N)=O)C(C)C)cc1", "Potency": "inconclusive [rising, single point]"},
      {"smiles": "Cc1ccc(CCNc2ncnc(Cl)c2N)cc1", "Potency": "active: 0.651 µM"},
      {"smiles": "COc1ccc2[nH]c(=O)c(CN(CC3CCCO3)C(=O)Nc3ccccc3OC)cc2c1", "note": "(stereo unspecified)", "Potency": "inconclusive [cytotoxic, single point]"},
      {"smiles": "CC(O)(c1ccc(F)c(F)c1)c1nc(-c2ccc(Cl)cc2)cs1", "note": "(stereo unspecified)", "Potency": "inconclusive [cytotoxic, single point]"},
      {"smiles": "S=C(N/N=C/c1ccccc1Cl)Nc1ccccc1", "Potency": "active: 14.1 µM"},
      {"smiles": "Cc1ccc(N=C2C(=O)Nc3ccc(Br)cc32)cc1", "Potency": "inconclusive [cytotoxic, single point]"},
      {"smiles": "Cc1ccc2cc(CN(Cc3ccc(F)cc3)Cc3nnnn3C3CCCC3)c(=O)[nH]c2c1", "Potency": "inconclusive [cytotoxic, single point]"},
      {"smiles": "COc1ccc(CC(=O)OCC(=O)Nc2ccc(N3CCOCC3)cc2)cc1", "Potency": "inactive"},
      {"smiles": "COc1ccc(OC)c(S(=O)(=O)Nc2ccc3c(c2)C(=O)OC3)c1", "Potency": "active: 18.4 µM"},
      {"smiles": "COc1ccc(/C=C(/C(=O)c2cccs2)N2C=CC=CC2=C(C#N)C#N)cc1", "Potency": "inconclusive [cytotoxic, single point]"},
      {"smiles": "COc1cc2c(cc1NC(=O)CSc1ccc(C)cc1)oc1ccccc12", "Potency": "inactive"},
      {"smiles": "Cc1ccc2[nH]c(=O)c(CN(Cc3cccs3)Cc3nnnn3Cc3ccccc3)cc2c1", "Potency": "inconclusive [cytotoxic, single point]"},
      {"smiles": "COc1ncnc2c1ncn2CCCNCC(C)c1ccccc1", "note": "(stereo unspecified)", "Potency": "inactive"},
      {"smiles": "O=c1[nH]c2ccccc2n1C1=CCCC1", "Potency": "inactive"},
      {"smiles": "COCCN1CCC(CNCc2cn(-c3cc(C)ccc3C)nc2-c2ccccc2)C1", "note": "(stereo unspecified)", "Potency": "active: 25.9 µM"},
      {"smiles": "Nc1sccc1C(=O)NCCN1CCOCC1", "Potency": "inactive"},
      {"smiles": "CC(C)COC(=O)/C(C#N)=C/c1cn(Cc2ccccc2)c2ccccc12", "Potency": "inconclusive [cytotoxic, single point]"}
    ]}
  ]
}
